Laboratory results taken from PubChem BioAssay (NCATS).
“And” between values parts separate entries of the source, which are not always exact repeats. Identical values can stand only once. Inconclusive results, whose numbers are uncertain, are shown with a selection of clear calls. Potencies of inconclusive entries are doubtful fits and often do not repeat. The source made the active and inactive calls. Calls come from the whole dose curve; as a rule, active = well fitted curve in the direction sought with a large enough effect; inconclusive = small, poorly fitted or top-dose-only effect, or another doubt; inactive = no such curve, though single readings can be large; an effect the other way counts as inactive or inconclusive.

Assays:
[1] = qHTS of pediatric cancer cell lines to identify multiple opportunities for drug repurposing: Primary screen for LAN-5 cells (AID 1347100); conditions: LAN-5 neuroblastoma viability, CellTiter-Glo luminescence, 48 h; activity change, negative = cytotoxic: at 46 µM (top of the series);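 for activity change, negative = cytotoxic: plate controls were DMSO neutral control for no effect and bortezomib positive control for full effect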
Procedure, shortened: (§1)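 Cells (500-1,000/well) in growth media were settled 5 h at 37 degrees C, then given compounds for 48 h. Viability was read as CellTiter-Glo luminescence. Primary runs used MIPE at 11 points (0.78 nM-46 µM) and NPC at 8 points (0.59 nM-46 µM); follow-ups used 11 points.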

[2] = qHTS of pediatric cancer cell lines to identify multiple opportunities for drug repurposing: Primary screen for BT-12 cells (AID 1347101); note: nearly all actives have a fitted effect of over 25% in size;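 for activity change, negative = cytotoxic: plate controls were DMSO for no effect and bortezomib positive control for full effect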
Procedure, shortened: (§2)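 Cells (500-1,000/well) rested 5 h, then received compounds for 48 h; metabolically active cells were measured by CellTiter-Glo luminescence. Final concentrations spanned up to 46 µM (MIPE, 11-point) or 0.59 nM-46 µM (NPC, 8-point) in primary screens, 11-point in follow-ups.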

[3] = qHTS of pediatric cancer cell lines to identify multiple opportunities for drug repurposing: Primary screen for OHS-50 cells (AID 1347103); note: nearly all actives have a fitted effect of over 40% in size
Procedure, shortened: as §2

[4] = qHTS of pediatric cancer cell lines to identify multiple opportunities for drug repurposing: Primary screen for RD cells (AID 1347104); note: nearly all actives have a fitted effect of over 55% in size;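 for activity change, negative = cytotoxic: plate controls were DMSO for no effect and bortezomib for full effect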
Procedure, shortened: (§3)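 Quantitative HTS format: each compound titrated (MIPE 11 points from 0.78 nM, NPC 8 points from 0.59 nM) onto cells plated 5 hours earlier. After 48 h at 37 degrees C, CellTiter-Glo luminescence was recorded.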

[5] = qHTS of pediatric cancer cell lines to identify multiple opportunities for drug repurposing: Primary screen for Rh18 cells (AID 1347102); conditions: Rh18 rhabdomyosarcoma viability, CellTiter-Glo luminescence, 48 h; activity change, negative = cytotoxic: at 46 µM (top of the series); note: nearly all actives have a fitted effect of over 65% in size; for activity change, negative = cytotoxic: % is set by controls: 0 for no effect and ±100 for the full control effect
Procedure, shortened: as §1

[6] = qHTS of pediatric cancer cell lines to identify multiple opportunities for drug repurposing: Primary screen for NB1643 cells (AID 1347099); note: nearly all actives have a fitted effect of over 50% in size;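 for activity change, negative = cytotoxic: plate controls were DMSO neutral control for no effect and bortezomib positive control for full effect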
Procedure, shortened: as §3

[7] = qHTS of pediatric cancer cell lines to identify multiple opportunities for drug repurposing: Primary screen for control Hh wild type fibroblast cells (AID 1347106); note: nearly all actives have a fitted effect of over 55% in size;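 for activity change, negative = cytotoxic: % is set by controls: 0 for no effect and ±100 for the full control effect; a drop in luminescence marks cytotoxicity and a rise apparent proliferation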
Procedure, shortened: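 Viability after 48 h compound treatment at 37C, 500-1,000 cells/well, read as ATP luminescence with CellTiter-Glo. Primary screens used 11-point (MIPE, 0.78 nM-46 µM) or 8-point (NPC, 0.59 nM-46 µM) final concentrations; follow-up screens used 11-point dilutions.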

[8] = qHTS of pediatric cancer cell lines to identify multiple opportunities for drug repurposing: Primary screen for MG 63 (6-TG R) cells (AID 1347105); conditions: MG 63 (6-TG R) viability, CellTiter-Glo, 48 h; activity change, negative = cytotoxic: at 46 µM (top of the series); note: nearly all actives have a fitted effect of over 50% in size; for activity change, negative = cytotoxic: % is set by controls: 0 for no effect and ±100 for the full control effect
Procedure, shortened: as §3
Potency is the fitted concentration of half-maximal effect; tags give direction and shape of the fitted curve.

NC[C@H]1O[C@H](O[C@H]2[C@H](O[C@@H]3O[C@H](CO)[C@@H](O)[C@H]3O)C(O)[C@H](N)C[C@@H]2N)[C@H](N)[C@@H](O)[C@@H]1O (stereo partly drawn)
activity change, negative = cytotoxic [1]: inactive: 25.3% [at 9.22 µM]

COc1cc(C(=O)OCCCN2CCCN(CCCOC(=O)c3cc(OC)c(OC)c(OC)c3)CC2)cc(OC)c1OC
Potency [1]: inconclusive: 23.7 µM [cytotoxic, single point]
Potency [2]: inconclusive: 30.9 µM [cytotoxic, single point]
Potency [3]: inconclusive: 21.9 µM [cytotoxic, single point]
Potency [4]: inconclusive: 23.7 µM [cytotoxic, partial curve, poor fit]

COc1ccc2cc([S+]([O-])Cc3ncc(C)c(OC)c3C)nc2c1
Potency [1]: inactive
Potency [5]: inactive
Potency [3]: inconclusive: 43.2 µM [cytotoxic, partial curve, poor fit]

CCN(CC)C(=O)/C(C#N)=C/c1cc(O)c(O)c([N+](=O)[O-])c1
Potency [1]: inconclusive: 26.6 µM [cytotoxic, single point]
Potency [2]: inconclusive: 19.5 µM [cytotoxic, single point]
Potency [3]: inconclusive: 38.9 µM [cytotoxic, single point]

CN(C)CCN(C)C(=O)c1ccc(NC(=O)Nc2ccc(-c3nc(N4CCOCC4)c4ccn(CC(F)(F)F)c4n3)cc2)cc1
Potency [6]: active: 418 nM
Potency [7]: active: 0.0526 µM

CCC(C)(C)C(=O)O[C@H]1C[C@@H](C)C=C2C=C[C@H](C)[C@H](CC[C@@H]3C[C@@H](O)CC(=O)O3)[C@H]21
Potency [1]: inactive
Potency [2]: active: 1.38 µM and active: 1.93 µM
Potency [5]: active: 8.41 µM and active: 14.8 µM
Potency [4]: inactive
Potency [8]: active: 2.66 µM and active: 4.69 µM

CN(C)c1ccc(C(=C2C=CC(=[N+](C)C)C=C2)c2ccc(N(C)C)cc2)cc1
Potency [6]: active: 3.35 µM and active: 7.43 µM
Potency [3]: active: 978 nM and active: 217 nM
Potency [4]: active: 1.88 µM and active: 662 nM
Potency [7]: active: 8.41 µM and active: 2.64 µM

Cc1ccc(C(=O)N(CCCN)[C@@H](c2nc3cc(Cl)ccc3c(=O)n2Cc2ccccc2)C(C)C)cc1
Potency [6]: inconclusive: 4.2 nM [cytotoxic, full curve, poor fit]
Potency [2]: active: 0.001 µM
Potency [5]: inconclusive: 14.8 µM [cytotoxic, partial curve, poor fit]
Potency [4]: inconclusive: 0.0013 µM [cytotoxic, full curve, poor fit]
Potency [8]: inconclusive: 0.0047 µM [cytotoxic, full curve]

CCN(CCCCOC(=O)c1ccc(OC)c(OC)c1)C(C)Cc1ccc(OC)cc1 (stereo not drawn)
Potency [6]: inactive
Potency [2]: inconclusive: 9.78 µM [cytotoxic, partial curve, poor fit]
Potency [3]: inconclusive: 21.9 µM [cytotoxic, single point]

Oc1cc(-c2nc(-c3ccccc3)[nH]c2-c2ccncc2)ccc1Cl
Potency [1]: active: 16.6 µM
Potency [2]: active: 6.11 µM
Potency [5]: active: 13.2 µM
Potency [3]: active: 24.3 µM

Nc1[nH]nc2nnc(-c3c(-c4ccccc4)nn4ccccc34)cc12
Potency [6]: active: 1870 nM
Potency [7]: inconclusive: 3.32 µM [cytotoxic, full curve]

OCCn1cc(-c2cnc3nnn(Cc4ccc5ncccc5c4)c3n2)cn1
Potency [5]: inactive

C[C@@H]1C[C@H]2[C@@H]3C[C@H](F)C4=CC(=O)C(Cl)=C[C@]4(C)[C@@]3(F)[C@@H](O)C[C@]2(C)[C@@]1(O)C(=O)CO
Potency [2]: inactive
Potency [4]: inactive
Potency [8]: inactive

CCN1CCCC1=O
Potency [5]: inactive

CC(C)N(CC[C@H](c1ccccc1)c1cc(CO)ccc1O)C(C)C
Potency [1]: inactive
Potency [3]: inconclusive: 19.3 µM [cytotoxic, partial curve, poor fit]

CCOC(=O)OC(C)OC1=C(C(=O)Nc2ccccn2)N(C)S(=O)(=O)c2ccccc21 (stereo not drawn)
Potency [2]: inactive

CCCN1CCCC[C@H]1C(=O)Nc1c(C)cccc1C
Potency [1]: inactive
Potency [8]: inactive

CCN(CC)CCNC(=O)c1ccc(N)cc1
Potency [5]: inactive

CCCCC(=O)O[C@]1(C(=O)CO)CC[C@H]2[C@@H]3CCC4=CC(=O)CC[C@]4(C)[C@H]3[C@@H](O)C[C@@]21C
Potency [2]: inactive
Potency [3]: inconclusive: 21.9 µM [cytotoxic, single point]

COc1cc2c(cc1OC)[C@@H]1CC(=O)[C@@H](CC(C)C)CN1CC2
Potency [2]: inactive
Potency [5]: inactive
Potency [3]: inconclusive: 43.7 µM [cytotoxic, partial curve, poor fit]

NC(=O)N1c2ccccc2C=Cc2ccccc21
Potency [2]: inactive

O=C(CCCCCCC(=O)Nc1ccc([C@H]2O[C@@H](CSc3nc(-c4ccccc4)c(-c4ccccc4)o3)C[C@@H](c3ccc(CO)cc3)O2)cc1)NO
Potency [1]: active: 8.33 µM
Potency [7]: inconclusive: 20.9 µM [cytotoxic, partial curve, poor fit]

Cc1nc2cnc3ccc(C#Cc4cccnc4)cc3c2n1-c1ccc(C(C)(C)C#N)cc1
Potency [2]: inconclusive: 0.137 µM [cytotoxic, full curve]
Potency [5]: active: 1.18 µM
Potency [7]: inconclusive: 0.418 µM [cytotoxic, full curve]

C[C@H]1[C@H](O)O[C@@H]2O[C@@]3(C)CC[C@@H]4[C@H](C)CC[C@@H]1[C@@]24OO3
Potency [2]: active: 1.53 µM
Potency [5]: inconclusive: 14.8 µM [cytotoxic, partial curve]
Potency [3]: active: 1.37 µM

NC(=O)NO
Potency [1]: inconclusive: 6.62 µM [cytotoxic, full curve]
Potency [5]: inconclusive: 11.8 µM [cytotoxic, partial curve]
Potency [7]: inconclusive: 14.8 µM [cytotoxic, partial curve]

CCN1CCC[C@H]1CNC(=O)c1c(OC)ccc(Br)c1OC
Potency [2]: inactive

CN(C)CCOc1ccc(-c2nc(-c3ccc4c(c3)CCC4=NO)c(-c3ccncc3)[nH]2)cc1
Potency [1]: inconclusive: 33.2 µM [cytotoxic, single point]
Potency [3]: inconclusive: 38.5 µM [cytotoxic, single point]
Potency [8]: inconclusive: 37.2 µM [cytotoxic, single point]
Potency [7]: inconclusive: 37.2 µM [cytotoxic, single point]

Nc1ccc(C(=O)Nc2cccc(-c3nc(N4CCOCC4)c4oc5ncccc5c4n3)c2)cn1
Potency [2]: inconclusive: 15.3 µM [cytotoxic, partial curve]
Potency [5]: active: 14.8 µM
Potency [4]: active: 10.5 µM
Potency [8]: inconclusive: 2.96 µM [cytotoxic, full curve]

CC(=O)[C@H]1CC[C@H]2[C@@H]3C[C@H](C)C4=CC(=O)CC[C@]4(C)[C@H]3[C@@H](O)C[C@]12C
Potency [2]: inconclusive: 13.8 µM [cytotoxic, partial curve, poor fit]
Potency [3]: inconclusive: 15.5 µM [cytotoxic, partial curve]

OCCN1C[C@H](O)[C@@H](O)[C@H](O)[C@H]1CO
Potency [2]: inactive

CCCc1nc(C)c2c(=O)[nH]c(-c3cc(S(=O)(=O)N4CCN(CC)CC4)ccc3OCC)nn12
Potency [2]: inconclusive: 24.6 µM [cytotoxic, partial curve, poor fit] and active: 12.2 µM

Cc1ccc(C(C)C)cc2c(C)ccc1-2
Potency [1]: inactive
Potency [8]: inactive

O=C1c2ccccc2C(=O)C1c1ccccc1
Potency [1]: inactive
Potency [4]: inactive
Potency [7]: inactive

COc1ccc(-c2oc3c(CC=C(C)C)c(O)cc(O)c3c(=O)c2O)cc1
Potency [1]: inconclusive: 20.9 µM [cytotoxic, single point]
Potency [3]: inconclusive: 12.2 µM [cytotoxic, partial curve]
Potency [8]: inconclusive: 37.2 µM [cytotoxic, single point]

CC1CCc2c(N3CCC(O)CC3)c(F)cc3c(=O)c(C(=O)O)cn1c23 (stereo not drawn)
Potency [2]: inconclusive: 6.92 µM [cytotoxic, single point]
Potency [5]: inactive

Cn1c(=O)c(-c2c(Cl)cccc2Cl)cc2cnc(Nc3cccc(C(=O)O)c3)nc21
Potency [5]: inconclusive: 0.526 µM [cytotoxic, full curve]
Potency [3]: inconclusive: 0.0611 µM [cytotoxic, full curve]

COc1cc(/C=C/C(=O)O[C@H]2CC[C@]34C[C@]35CC[C@]3(C)[C@@H]([C@H](C)CCC=C(C)C)CC[C@@]3(C)[C@@H]5CC[C@H]4C2(C)C)ccc1O
Potency [2]: inactive
Potency [3]: inconclusive: 13.8 µM [cytotoxic, single point]
activity change, negative = cytotoxic [8]: inconclusive: -31.1% [cytotoxic]

CN1CCC(COc2cnc(-c3cccc(Cn4nc(-c5cccc(C#N)c5)ccc4=O)c3)nc2)CC1
Potency [1]: inconclusive: 4.18 µM [cytotoxic, full curve]
Potency [3]: inconclusive: 13.7 µM [cytotoxic, single point]
Potency [7]: inconclusive: 0.743 µM [cytotoxic, full curve]

C[C@]12C=CC(=O)C=C1[C@@H](F)C[C@@H]1[C@@H]2[C@@H](O)C[C@@]2(C)[C@H]1CC[C@]2(O)C(=O)CO
Potency [1]: inactive
Potency [4]: inactive

NC(=O)c1ncn([C@@H]2O[C@H](CO)[C@@H](O)[C@@H]2O)n1
Potency [2]: inconclusive: 24.3 µM [cytotoxic, single point]

CCOC(=O)N1CCN([N+]([O-])=NOc2cc(ON=[N+]([O-])N3CCN(C(=O)OCC)CC3)c([N+](=O)[O-])cc2[N+](=O)[O-])CC1
Potency [2]: inactive

Cc1ncc(-c2ccnc(Nc3ccc(S(C)(=O)=O)cc3)n2)n1C(C)C
Potency [1]: inconclusive: 2.64 µM [cytotoxic, full curve]
Potency [5]: inconclusive: 7.43 µM [cytotoxic, full curve]
Potency [3]: active: 3.85 µM
Potency [8]: inconclusive: 7.43 µM [cytotoxic, full curve]
